The results in this text go back to article PMC9911399, “Two distinct binding modes provide the RNA-binding protein RbFox with extraordinary sequence specificity”.

Residue numbers refer to the chain shown, from its start. This is one part of the list.

First the molecules themselves.
B1: UGCUGAU (DNA:RNA)
RNA: GGGAGACCGGAAUUCAGAUUGUCCUGCUGAUUUAAAUCCCGUCGUAGCCACCA
DNA 1: CAATCTGAATTCCGGTCTCCC
DNA 2: TGGTGGCTACGACGGGATT
B2: CCGAGGC (DNA:RNA)
RNA: B1 RNA with U25C, G26C, C27G, U28A, A30G, U31C
DNA 1: CAATCTGAATTCCGGTCTCCC
DNA 2: TGGTGGCTACGACGGGATT
B3: CGCGAUA (DNA:RNA)
RNA: B1 RNA with U25C, U28G, G29A, A30U, U31A
DNA 1: CAATCTGAATTCCGGTCTCCC
DNA 2: TGGTGGCTACGACGGGATT
B4: CUUAUAU (DNA:RNA)
RNA: B1 RNA with U25C, G26U, C27U, U28A, G29U
DNA 1: CAATCTGAATTCCGGTCTCCC
DNA 2: TGGTGGCTACGACGGGATT
B5: UCCAAUA (DNA:RNA)
RNA: B1 RNA with G26C, U28A, G29A, A30U, U31A
DNA 1: CAATCTGAATTCCGGTCTCCC
DNA 2: TGGTGGCTACGACGGGATT
B6: UUAGAUC (DNA:RNA)
RNA: B1 RNA with G26U, C27A, U28G, G29A, A30U, U31C
DNA 1: CAATCTGAATTCCGGTCTCCC
DNA 2: TGGTGGCTACGACGGGATT
B7: AUGCAGC (DNA:RNA)
RNA: GGGAGACCGGAAUUCAGAUUGUCCAUGCAGCUUAAAUCCCGUCGUAGCCACCA
DNA 1: CAATCTGAATTCCGGTCTCCC
DNA 2: TGGTGGCTACGACGGGATT
B8: ACUCGCU (DNA:RNA)
RNA: B7 RNA with U26C, G27U, A29G, G30C, C31U
DNA 1: CAATCTGAATTCCGGTCTCCC
DNA 2: TGGTGGCTACGACGGGATT
B9: GCUAUAA (DNA:RNA)
RNA: B1 RNA with U25G, G26C, C27U, U28A, G29U, U31A
DNA 1: CAATCTGAATTCCGGTCTCCC
DNA 2: TGGTGGCTACGACGGGATT
B10: GGAGCAU (DNA:RNA)
RNA: B1 RNA with U25G, C27A, U28G, G29C
DNA 1: CAATCTGAATTCCGGTCTCCC
DNA 2: TGGTGGCTACGACGGGATT
B11: UCUUGUC (DNA:RNA)
RNA: B1 RNA with G26C, C27U, A30U, U31C
DNA 1: CAATCTGAATTCCGGTCTCCC
DNA 2: TGGTGGCTACGACGGGATT
B12: UGUGGAA (DNA:RNA)
RNA: B1 RNA with C27U, U28G, U31A
DNA 1: CAATCTGAATTCCGGTCTCCC
DNA 2: TGGTGGCTACGACGGGATT
B13: GGAUGAA (DNA:RNA)
RNA: B1 RNA with U25G, C27A, U31A
DNA 1: CAATCTGAATTCCGGTCTCCC
DNA 2: TGGTGGCTACGACGGGATT
B14: GUCUGCU (DNA:RNA)
RNA: B1 RNA with U25G, G26U, A30C
DNA 1: CAATCTGAATTCCGGTCTCCC
DNA 2: TGGTGGCTACGACGGGATT
B15: CUCUUUA (DNA:RNA)
RNA: B1 RNA with U25C, G26U, G29U, A30U, U31A
DNA 1: CAATCTGAATTCCGGTCTCCC
DNA 2: TGGTGGCTACGACGGGATT
B16: CCUUCUA (DNA:RNA)
RNA: B1 RNA with U25C, G26C, C27U, G29C, A30U, U31A
DNA 1: CAATCTGAATTCCGGTCTCCC
DNA 2: TGGTGGCTACGACGGGATT
B17: UUCUUUA (DNA:RNA)
RNA: B1 RNA with G26U, G29U, A30U, U31A
DNA 1: CAATCTGAATTCCGGTCTCCC
DNA 2: TGGTGGCTACGACGGGATT
B18: UAUCAUG (DNA:RNA)
RNA: B7 RNA with A25U, U26A, G27U, G30U, C31G
DNA 1: CAATCTGAATTCCGGTCTCCC
DNA 2: TGGTGGCTACGACGGGATT
B19: GUUAUAU (DNA:RNA)
RNA: B1 RNA with U25G, G26U, C27U, U28A, G29U
DNA 1: CAATCTGAATTCCGGTCTCCC
DNA 2: TGGTGGCTACGACGGGATT
B20: CGUCAGU (DNA:RNA)
RNA: B7 RNA with A25C, U26G, G27U, C31U
DNA 1: CAATCTGAATTCCGGTCTCCC
DNA 2: TGGTGGCTACGACGGGATT
B21: CACCCGC (DNA:RNA)
RNA: B7 RNA with A25C, U26A, G27C, A29C
DNA 1: CAATCTGAATTCCGGTCTCCC
DNA 2: TGGTGGCTACGACGGGATT
B22: GUACUUA (DNA:RNA)
RNA: B7 RNA with A25G, G27A, A29U, G30U, C31A
DNA 1: CAATCTGAATTCCGGTCTCCC
DNA 2: TGGTGGCTACGACGGGATT
B23: CCACGAU (DNA:RNA)
RNA: B1 RNA with U25C, G26C, C27A, U28C
DNA 1: CAATCTGAATTCCGGTCTCCC
DNA 2: TGGTGGCTACGACGGGATT
B24: CACUCGA (DNA:RNA)
RNA: B1 RNA with U25C, G26A, G29C, A30G, U31A
DNA 1: CAATCTGAATTCCGGTCTCCC
DNA 2: TGGTGGCTACGACGGGATT
B25: UCUACCC (DNA:RNA)
RNA: B7 RNA with A25U, U26C, G27U, C28A, A29C, G30C
DNA 1: CAATCTGAATTCCGGTCTCCC
DNA 2: TGGTGGCTACGACGGGATT
B26: GGACUUA (DNA:RNA)
RNA: B7 RNA with A25G, U26G, G27A, A29U, G30U, C31A
DNA 1: CAATCTGAATTCCGGTCTCCC
DNA 2: TGGTGGCTACGACGGGATT
B27: GGGGAAA (DNA:RNA)
RNA: B7 RNA with A25G, U26G, C28G, G30A, C31A
DNA 1: CAATCTGAATTCCGGTCTCCC
DNA 2: TGGTGGCTACGACGGGATT
B28: GUGGAGU (DNA:RNA)
RNA: B7 RNA with A25G, C28G, C31U
DNA 1: CAATCTGAATTCCGGTCTCCC
DNA 2: TGGTGGCTACGACGGGATT
B29: UGCCGUU (DNA:RNA)
RNA: B1 RNA with U28C, A30U
DNA 1: CAATCTGAATTCCGGTCTCCC
DNA 2: TGGTGGCTACGACGGGATT
B30: GGAUAGG (DNA:RNA)
RNA: B7 RNA with A25G, U26G, G27A, C28U, C31G
DNA 1: CAATCTGAATTCCGGTCTCCC
DNA 2: TGGTGGCTACGACGGGATT
B31: ACAGGCC (DNA:RNA)
RNA: B7 RNA with U26C, G27A, C28G, A29G, G30C
DNA 1: CAATCTGAATTCCGGTCTCCC
DNA 2: TGGTGGCTACGACGGGATT

The target in this experiment is T1, RBFOX1 RRM (Homo sapiens, UniProt Q9NWB1 109-208).
T1 sequence: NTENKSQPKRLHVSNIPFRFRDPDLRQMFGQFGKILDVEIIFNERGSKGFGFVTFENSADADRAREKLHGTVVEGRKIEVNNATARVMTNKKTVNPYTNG
As to the kind of experiment: EMSA; HiTS-Eq, 1 nM pool, 10 min; buffer printed only for the single-RNA assays: 10 mM Tris pH 7.5, 150 mM NaCl, 3.4 mM EDTA, 0.001% NP-40, 30 C. The settings on record: tags: His6 N-terminal (pET28a); label: 5' 32P. The method in brief: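 Purified RbFox RRM (wild type or mutant) was equilibrated for 10 min in 50 µL with 1 nM of a 5′-radiolabelled pool of RNA with 7 randomized nucleotides, its flanks annealed to DNA oligonucleotides, across increasing protein concentrations. Free RNA was separated by 8% native PAGE, excised, reverse-transcribed, PCR-barcoded and sequenced on an Illumina HiSeq 2500. Relative association constants came from read-count changes of each variant against the control reaction, normalised to the cognate motif.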
A general note: A gel shift assay detects complexes by their altered migration in electrophoresis.
As for B1, the binding signal was 0.0216 KA relative to UGCAUGU.
The same measure for B2: 0.018 KA relative to UGCAUGU.
B3: the binding signal is 0.00807 KA relative to UGCAUGU.
The same measure for B4: 0.00214 KA relative to UGCAUGU; for B5: 0.00192 KA relative to UGCAUGU; for B6: 0.0111 KA relative to UGCAUGU.
The same measure for B7: 0.00756 KA relative to UGCAUGU; for B8: 0.00463 KA relative to UGCAUGU.
Then B9, with 0.00546 KA relative to UGCAUGU; and B10, with 0.0166 KA relative to UGCAUGU.
B11: the binding signal was 0.017 KA relative to UGCAUGU.
The same measure for B12: 0.011 KA relative to UGCAUGU; for B13: 0.0174 KA relative to UGCAUGU; for B14: 0.0263 KA relative to UGCAUGU.
Then B15, with 0.00317 KA relative to UGCAUGU; and B16, with 0.0036 KA relative to UGCAUGU.
The same measure for B17: 0.00687 KA relative to UGCAUGU; for B18: 0.0146 KA relative to UGCAUGU; for B19: 0.00265 KA relative to UGCAUGU.
Consider B20, for which the binding signal is 0.0114 KA relative to UGCAUGU.
The same measure for B21: 0.00257 KA relative to UGCAUGU.
Then B22, with 0.0033 KA relative to UGCAUGU; and B23, with 0.00218 KA relative to UGCAUGU.
Then B24, with 0.00262 KA relative to UGCAUGU.
Turning to B25, the binding signal is 0.0044 KA relative to UGCAUGU.
Then B26, with 0.00774 KA relative to UGCAUGU; and B27, with 0.0294 KA relative to UGCAUGU.
The same measure for B28: 0.0187 KA relative to UGCAUGU.
The same measure for B29: 0.0152 KA relative to UGCAUGU; for B30: 0.0148 KA relative to UGCAUGU; for B31: 0.00855 KA relative to UGCAUGU.
